Experimental data: the supplement of paper PMC10126150
Sequences with one replicate were seen in a single cluster, so their values are uncertain.

Test system: ATP
Test: switch fluorescence ratio, 500 uM ATP over buffer (Cy3 cluster intensity, sum of 5 cycles each) (fold (ratio)); higher = stronger signal-on switching upon ATP binding; sequences stand for … in TCGTCGGCAGCGTCAGATGTGTATAAGAGACAGTTTTTTTTTTTTTTTTTTTTTTTTT…TC
Settings: aptamer strand: ATP DNA aptamer (quencher-CACCTGGGGGAGTATTGCGGAGGAAGG + anchor), 100 nM annealed; ATP concentration: 500 uM; one replicate
Method in brief: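 Switching-strand clusters labelled with Cy3 on a modified Illumina MiSeq flow-cell were annealed to 100 nM quencher-labelled ATP aptamer, imaged in selection buffer, and re-imaged after 15 min with 500 uM ATP at 22 °C. This was done over five cycles with NaOH stripping and re-annealing in between. The fluorescence ratio is summed target-cycle over summed buffer-cycle Cy3 intensity per cluster, averaged per switch-domain sequence, excluding clusters outside 100-1000 RFU.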
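Also: ATP exposure 15 min at 22 °C before imaging.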

| Sequence | switch fluorescence ratio |
| --- | --- |
| CTTAGCCTTA | 0.966 |
| TCAGCGTAGG | 1 |
| AACTGTATTA | 1.07 |
| CGCGGTTTCA | 1.04 |
| ATGAAACAAG | 0.978 |
| TACTTAATTT | 1.06 |
| GGAAGAAAGG | 1.03 |
| CAATTCGTCC | 1.01 |
| ATGGTGGCGT | 1.01 |
| GCAGAATATC | 1.05 |
| CGTGACACAA | 1.04 |
| TAAGATAACG | 1 |
| CTTGTTGGCA | 1.04 |
| ACGAGAGTGA | 1.04 |
| CGCCGTTCC | 1.05 |
| GCGTCTACAA | 0.996 |
| CCACCTTTCG | 1.19 |
| TTAATGGACG | 0.967 |
| CTTGATTTTG | 1.04 |
| ACTCACGCTA | 1.92 |
| GGGGCTACCT | 1.05 |
| GCGCAGCG | 1.02 |
| ACAGTATATA | 1.11 |

| Sequence | switch fluorescence ratio |
| --- | --- |
| ATGGCATGG | 1.04 |
| CCTAAGCCAA | 3.14 |
| ATACTTGGGT | 1 |
| AATTGGGACT | 0.952 |
| GTATACCCGT | 1.05 |
| CCATTCCGGA | 1.02 |
| CCATATGGGT | 1.04 |
| GTCTCACGGG | 1.07 |
| GTTTGATTCT | 1 |
| AGGAGACCGA | 1 |
| CCAAGGAAG | 1.01 |
| ATTAGAGAGA | 1.04 |
| TGCAGGGCG | 0.991 |
| GGGAGTCCAG | 1.43 |
| CCATGTAGGC | 1.03 |
| TAGTAATGCG | 1.01 |
| GTAAAAAGTT | 0.996 |
| GATGCTGTT | 1 |
| TGTGGCTTTG | 0.963 |
| AAAACGCCTT | 1.06 |
| TAGGGAACAG | 0.999 |
| AACGAAATAT | 1.15 |
| CATTTGTTGT | 0.978 |

| Sequence | switch fluorescence ratio |
| --- | --- |
| CCCGGACTGT | 1.01 |
| TTTCAATTAG | 1.02 |
| GGGAAAGTGT | 1 |
| CCGGCAAAGG | 1.33 |
| ATCTATACCG | 1.02 |
| TCTGGGGGCA | 1.02 |
| GATATAGTAC | 1.17 |
| CTGATGGGGC | 1.01 |
| GTCGCTACAC | 1.35 |
| TGTGAGGTAT | 1.01 |
| ATACGTGCG | 0.973 |
| AATATGTTT | 1.01 |
| GGGTAGGATG | 0.981 |
| AAGATATAA | 1.02 |
| CCAACGGGGC | 1.37 |
| GACTTGGAAC | 0.993 |
| CAACAATAGC | 1.25 |
| CGTCATTTAA | 1.06 |
| CGAAATAAGC | 1.09 |
| ATAAGGGTGG | 0.953 |
| TAGAAGGAT | 0.981 |
| TAGAGGATCG | 1.04 |
| TGAAGTCTAT | 0.979 |

| Sequence | switch fluorescence ratio |
| --- | --- |
| TAGTGGCTTT | 0.99 |
| ACCGCGAGCA | 1.09 |
| AGAGGTGATT | 1.05 |
| GTGTGCCGTA | 0.983 |
| CGGTGCACTT | 1.05 |
| GGATCCGTTA | 0.995 |
| CAATATGAGG | 0.985 |
| ATCGCGCTCT | 1.01 |
| ACCTAGCGTA | 0.992 |
| TTTAGTGGT | 0.996 |
| TATATAGAAC | 1.01 |
| TTCATGCTG | 0.961 |
| CGCAAGTTTA | 1.08 |
| AGCGTCAAT | 1.05 |
| GTCCTCCTA | 1.16 |
| AGTATGTTTG | 0.951 |
| CCGTGGGTAG | 0.996 |
| TGTCGAGTCT | 1.01 |
| CGCGGGGGCA | 1.01 |
| TGCGGAGGGA | 1.11 |
| GGGTCCA | 0.997 |
| AAGAACACGT | 0.984 |
| CGGGAATTTA | 0.997 |

| Sequence | switch fluorescence ratio |
| --- | --- |
| ATATGACTTC | 0.998 |
| GGAATGGGGG | 0.954 |
| ACATAAAATA | 1.01 |
| ATTAGCGACT | 1 |
| TTTCATAAGC | 1.04 |
| TTGCTCTAGT | 1 |
| AACCATCGGA | 0.999 |
| CTGGTGTCTA | 1.02 |
| GGTGCCCTCC | 1.13 |
| TCGCCATCTC | 1.63 |
| GTTTCTGCGT | 0.98 |
| CTGTGCTGTA | 1.02 |
| CATAACACGC | 1.05 |
| CGAGAATAGT | 1.01 |
| GGGAACTCCC | 1 |
| CAAGAGAGTG | 1.01 |
| GGTCAGGTGG | 0.992 |
| TTGCGTAATT | 1.02 |
| GCGAGAGCGA | 1.07 |
| GAACCGTGCT | 0.967 |
| TTCCCACAAT | 1.26 |
| GCACGACGGG | 0.99 |
| CAGTGTAACA | 1.01 |

| Sequence | switch fluorescence ratio |
| --- | --- |
| AGATCGGGAT | 0.963 |
| GCTCAAATAA | 1.08 |
| AAGATATCCC | 1.03 |
| GACAGCTAAC | 2.1 |
| GTATAGCAAC | 1.09 |
| ATTTGGACAG | 1.03 |
| ACTGTTATAA | 1.01 |
| CCACTTGTTT | 1.03 |
| CGTTGTCTTC | 0.981 |
| GAGGCATGTA | 1.06 |
| TTGCTCACTG | 0.996 |
| GGGCTGTGTA | 1.02 |
| TGCCAGGAAG | 1.01 |
| TGGATTACTA | 0.98 |
| CCTGCTAGTG | 1.06 |
| TCGAGGGA | 1.03 |
| CCGCCTAGCC | 2.6 |
| AATCAAGGTG | 1.42 |
| AACGTGTTCG | 1.03 |
| GTGTTCCCCT | 1.03 |
| ATGGACTAGA | 1.05 |
| GGACCGCTTT | 1.03 |
| GCAGACTTGA | 0.984 |

| Sequence | switch fluorescence ratio |
| --- | --- |
| GCTTGGTTCC | 1.12 |
| TTCCCAATCT | 1.18 |
| CCATAATTCA | 0.987 |
| TGCCCCGGAA | 1.8 |
| TCGATATCGT | 0.94 |
| ATTTATAATC | 0.967 |
| CGAGTTACCT | 1.15 |
| AGTGGCTTCA | 1 |
| TAAGAGGTGC | 1.04 |
| ACGGTGAGG | 0.989 |
| CGAAGTAGTT | 1.04 |
| TGTGTTTTGC | 1.04 |
| GTTAGCGTAA | 1.07 |
| ACAAGTTGTG | 1.01 |
| GCTCGGCAAA | 1.04 |
| AAGAGCACAC | 1.11 |
| GGAATAAGTC | 1.03 |
| TTTATTCGAT | 1 |
| ATCATTTACT | 1.01 |
| ATTCCACGC | 1.33 |
